# From PubChem BioAssay (NCATS)
# The shares of active, inactive and inconclusive entries below differ from those in the screen. For some of these results: No potency is given beside an inconclusive call; the fits are too rough. For some of these results: A note “side channel” means that the fit belongs to a control or component signal, not to the main read-out. The source made the active and inactive calls. Unless noted, the call rests on the fitted dose curve.
# Assays:
# [1] = target: Peroxisome proliferator-activated receptor delta (Homo sapiens) (UniProt Q03181); assay: qHTS assay for small molecule agonists of peroxisome proliferator-activated receptor delta signaling (AID 588534); details: HEK293T PPARdelta-UAS-bla, beta-lactamase ratio, 18 h; activation: at 76.7 µM (top of the series) unless noted; further: potency means the concentration at half of the fitted maximal effect;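 on activation: 0% = DMSO basal wells and 100% = positive control agonist at 10 µM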
# Sequence of UniProt Q03181 (Q03181 whole entry, looked up): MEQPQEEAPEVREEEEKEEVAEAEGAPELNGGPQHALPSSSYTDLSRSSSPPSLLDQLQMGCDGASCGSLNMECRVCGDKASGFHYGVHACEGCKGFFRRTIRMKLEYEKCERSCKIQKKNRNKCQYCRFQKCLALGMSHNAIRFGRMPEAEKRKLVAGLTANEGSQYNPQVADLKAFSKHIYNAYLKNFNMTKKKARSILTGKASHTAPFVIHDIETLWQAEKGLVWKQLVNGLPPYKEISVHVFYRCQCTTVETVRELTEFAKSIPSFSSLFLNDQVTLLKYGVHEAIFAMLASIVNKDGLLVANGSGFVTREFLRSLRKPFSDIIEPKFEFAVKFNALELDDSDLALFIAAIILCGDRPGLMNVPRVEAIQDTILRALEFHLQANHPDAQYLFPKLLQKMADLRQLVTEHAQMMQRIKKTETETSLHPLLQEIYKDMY
# How it was run: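 Titration series tested in agonist mode on beta-lactamase reporter cells; 18 hrs at 37 C after a 5 hr pre-incubation. Readout: CCF4 fluorescence, 2 hrs RT. Hill equation gives EC50 and maximal response.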
# [2] = target: Peroxisome proliferator-activated receptor delta (Homo sapiens) (UniProt Q03181); assay: qHTS assay for small molecule antagonists of peroxisome proliferator-activated receptor delta signaling (AID 588535; active means well fitted inhibition curve with a large enough effect in the signal ratio, with a control signal flat, not every such curve was filed as active; inconclusive means small, poorly fitted or top-dose-only effect, or effect the other way, or a change in a side signal; inactive means no such curve, though single readings can be large or run the other way; the % refers to the signal ratio; further: potency means the concentration at half of the fitted maximal effect); details: HEK293T PPARd-UAS-bla, beta-lactamase FRET ratio, 18 h; activity change, negative = inhibition: at 76.7 µM (top of the series) unless noted
# How it was run: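 Antagonist-mode qHTS using GeneBLAzer PPAR-delta-UAS-bla HEK293T cells; compound exposure 18 hrs at 37 C over a titration. Ratiometric CCF4 fluorescence at 460/530 nm; concentration-response points fitted to the Hill equation.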
# [3] = target: Vitamin D3 receptor (Homo sapiens) (UniProt P11473); assay: qHTS assay for small molecule antagonists of vitamin D receptor signaling (AID 588541); details: HEK293T VDR-UAS-bla, beta-lactamase ratio, antagonist mode;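 further: receptor activated by calcitriol during compound treatment; on the % scale 0 is the no-effect control and ±100 the full control effect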
# [4] = target: Retinoic acid receptor RXR-alpha (Homo sapiens) (UniProt P19793); assay: qHTS assay for small molecule agonists of retinoid X receptor alpha signaling (AID 588544); details: HEK293T RXRa-UAS-bla, beta-lactamase reporter, 18 h; activation: at 76.7 µM (top of the series); further: potency means the concentration at half of the fitted maximal effect;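 on activation: 0% = DMSO basal wells and 100% = reference agonist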
# Sequence of UniProt P19793 (P19793 whole entry, looked up): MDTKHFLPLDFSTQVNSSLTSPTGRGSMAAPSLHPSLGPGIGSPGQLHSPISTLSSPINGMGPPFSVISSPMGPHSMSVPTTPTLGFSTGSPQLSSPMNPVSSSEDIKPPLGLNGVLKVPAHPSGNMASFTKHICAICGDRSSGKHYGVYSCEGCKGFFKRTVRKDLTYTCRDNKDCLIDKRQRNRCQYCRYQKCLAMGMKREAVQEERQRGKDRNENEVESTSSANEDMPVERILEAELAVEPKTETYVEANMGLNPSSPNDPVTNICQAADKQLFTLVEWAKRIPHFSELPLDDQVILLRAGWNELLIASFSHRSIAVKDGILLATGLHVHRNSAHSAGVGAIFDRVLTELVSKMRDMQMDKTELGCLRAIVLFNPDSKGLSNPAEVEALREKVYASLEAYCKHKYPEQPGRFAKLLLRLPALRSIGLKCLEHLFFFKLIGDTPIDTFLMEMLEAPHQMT
# [5] = qHTS assay for small molecule agonists of the antioxidant response element (ARE) signaling pathway (AID 651741; active means well fitted activation curve with a large enough effect in the signal ratio; inconclusive means small, poorly fitted or top-dose-only effect, or effect the other way, or a change in a side signal; the % refers to the signal ratio; further: potency means the concentration at half of the fitted maximal effect; on activation: % of control where 0% means no effect); details: HepG2 ARE-bla reporter, beta-lactamase FRET ratio, 16 h; activation: at 96 µM (top of the series) unless noted
# How it was run: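 Agonist activity is measured as ARE-driven beta-lactamase expression in a stable HepG2 reporter line, using 16 h compound treatment at 37 C and a FRET substrate fluorescence readout after 2 h.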
# [6] = target: Glucocorticoid receptor (Homo sapiens) (UniProt P04150); assay: qHTS assay for small molecule antagonists of glucocorticoid receptor signaling (AID 588533; active means well fitted inhibition curve with a large enough effect in the signal ratio, with a control signal flat, not every such curve was filed as active; inconclusive means small, poorly fitted or top-dose-only effect, or effect the other way, or a change in a side signal; the % refers to the signal ratio;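 further: cells stimulated with 2 nM dexamethasone as agonist; on the % scale 0 is the no-effect control and ±100 the full control effect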); details: HeLa MMTV-bla, GRE beta-lactamase ratio, antagonist mode, 18 h; activity change, negative = inhibition: at 76.8 µM (top of the series)
# [7] = target: Peroxisome proliferator-activated receptor gamma (Homo sapiens) (UniProt P37231); assay: qHTS assay for small molecule antagonists of peroxisome proliferator-activated receptor gamma signaling (AID 588537; active means well fitted inhibition curve with a large enough effect in the signal ratio, with a control signal flat, not every such curve was filed as active; inconclusive means small, poorly fitted or top-dose-only effect, or effect the other way, or a change in a side signal; the % refers to the signal ratio;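 further: reporter cells co-stimulated with 50 nM rosiglitazone agonist during compound treatment; % of control where 0% means no effect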); details: HEK293 PPARg-UAS-bla, beta-lactamase ratio, antagonist mode; activity, negative = inhibition: at 76.8 µM (top of the series) unless noted
# How it was run: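 Cell-based beta-lactamase assay; GW9662 served as the antagonist control. Stimulation used rosiglitazone, final 50 nM, 16 h, 37 C.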
# [8] = target: Retinoic acid receptor RXR-alpha (Homo sapiens) (UniProt P19793); assay: qHTS assay for small molecule antagonists of retinoid X receptor alpha signaling (AID 588546; active means well fitted inhibition curve with a large enough effect in the signal ratio, with a control signal flat, not every such curve was filed as active; inconclusive means small, poorly fitted or top-dose-only effect, or effect the other way, or a change in a side signal; inactive means no such curve, though single readings can be large or run the other way; the % refers to the signal ratio;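 further: cells stimulated with 9-cis-retinoic acid as agonist; on the % scale 0 is the no-effect control and ±100 the full control effect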); details: HEK293T RXRa-UAS-bla, beta-lactamase ratio, antagonist mode
# How it was run: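 Beta-lactamase reporter inhibition, read as CCF4 fluorescence ratio (ex 405, em 460/530 nm) after 2 h at RT. HEK293T UAS-bla cells, 2500/well, were stimulated with 9-cis-RA at 500 or 100 nM final alongside test compound for 18 h at 37 C.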
# [9] = target: Thyroid hormone receptor beta (Homo sapiens) (UniProt P10828); assay: qHTS assay for small molecule agonists of thyroid hormone receptor beta signaling (AID 588545); details: TR-UAS-bla GripTite HEK 293, beta-lactamase ratio, agonist mode, 18 h; activation: at 76.7 µM, percent of T3 response, DMSO as zero; further: potency means the concentration at half of the fitted maximal effect;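 on activation: 0% = DMSO only and 100% = 10 nM T3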
# Sequence of UniProt P10828 (P10828 whole entry, looked up): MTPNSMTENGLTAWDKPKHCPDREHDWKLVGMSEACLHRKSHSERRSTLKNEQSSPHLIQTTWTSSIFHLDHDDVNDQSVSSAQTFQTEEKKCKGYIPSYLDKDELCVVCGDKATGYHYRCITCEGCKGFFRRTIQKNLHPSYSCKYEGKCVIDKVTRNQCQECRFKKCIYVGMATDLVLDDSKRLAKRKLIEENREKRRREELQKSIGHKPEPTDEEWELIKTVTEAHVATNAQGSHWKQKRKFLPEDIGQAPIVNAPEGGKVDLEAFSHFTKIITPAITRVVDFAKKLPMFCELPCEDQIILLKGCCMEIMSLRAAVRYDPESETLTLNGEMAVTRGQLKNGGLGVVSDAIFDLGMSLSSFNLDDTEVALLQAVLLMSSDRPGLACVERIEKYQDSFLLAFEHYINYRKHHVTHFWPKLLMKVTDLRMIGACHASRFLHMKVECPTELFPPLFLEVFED
# How it was run: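 Beta-lactamase reporter activity under TR response element control is measured in HEK 293 cells after 18 hrs compound exposure. Signal is ratiometric CCF4 fluorescence, 460/530 nm.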
# [10] = target: Tumor necrosis factor (Homo sapiens) (UniProt P01375); assay: qHTS assay to identify small molecules that stimulate Tumor Necrosis Factor-alpha (TNF-alpha) secretion (AID 651757; active means well fitted curve in the direction sought with a large enough effect in the signal ratio; inconclusive means small, poorly fitted or top-dose-only effect, or a change in a side signal; inactive means no such curve, though single readings can be large or run the other way; the % refers to the signal ratio; further: 0% is about no effect); details: Human cells, HTRF 665/615 ratio; activation (TNF-alpha secretion): at 92.2 µM (top of the series)
# Sequence of UniProt P01375 (P01375 whole entry, looked up): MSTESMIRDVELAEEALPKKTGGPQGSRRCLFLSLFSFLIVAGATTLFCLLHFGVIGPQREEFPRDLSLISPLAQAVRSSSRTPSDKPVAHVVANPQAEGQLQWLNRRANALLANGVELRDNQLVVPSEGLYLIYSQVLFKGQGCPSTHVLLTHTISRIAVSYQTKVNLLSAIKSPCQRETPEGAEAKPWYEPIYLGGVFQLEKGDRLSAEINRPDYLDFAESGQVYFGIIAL
# How it was run: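 THP-1 cells, 3000/well; compound 17 hrs, 37 C; add cryptate/XL665 anti-TNF-alpha antibody pair; 3 hr RT; TR-FRET (HTRF) read of secreted TNF-alpha. Quantitative HTS format.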
# [11] = qHTS assay to identify small molecules that stimulate interleukin-8 (IL-8) secretion (AID 651758; active means well fitted activation curve with a large enough effect in the signal ratio; inconclusive means small, poorly fitted or top-dose-only effect, or effect the other way, or a change in a side signal; the % refers to the signal ratio; further: 0% is about no effect); details: HTRF ratio (665/615); activation: at 92.2 µM (top of the series)
# How it was run: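 Secreted IL-8 measured homogeneously by TR-FRET (two labelled anti-IL-8 antibodies, 1-3 h at room temperature) after a 16 h, 37 C compound treatment of THP-1 cells at 2000 cells/well.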
# [12] = Cellular Toxicity (caspase-3) Hek293 (AID 664; active means well fitted curve in the direction sought with a large enough effect; inconclusive means small, poorly fitted or top-dose-only effect, or another doubt; inactive means no such curve, though single readings can be large; an effect the other way counts as inactive or inconclusive;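 further: cells exposed to compound for 16 h at 37 °C before readout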); details: HEK293 caspase-3 activation, DMSO = 0%, 100 µM tamoxifen = 100%; at 92.2 µM (top of the series)
# How it was run: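 Luminescent Caspase-Glo 3/7 readout (aminoluciferin release) in HEK293 cells after 16 h compound treatment, 37 °C. Normalization: DMSO = basal, 100 uM tamoxifen = 100% stimulation. Concentration-response fitted with standard Hill equation for AC50.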
# [13] = Cell Viability - LYMP2-014 (AID 983; active means well fitted curve in the direction sought with a large enough effect; inconclusive means small, poorly fitted or top-dose-only effect, or another doubt; inactive means no such curve, though single readings can be large; an effect the other way counts as inactive or inconclusive;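 further: cells exposed to compound for 24 h at 37 °C; plate controls were DMSO only for no effect and 92 µM tetraoctylammonium bromide for full effect; nearly all actives have a fitted effect of over 50% in size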)
# How it was run: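 2500 cells/well, 5 hr 37 C; cpd 24 hr 37 C, complete medium; CellTiter-Glo 30 min RT, luminescence; ATP loss = toxicity; AC50 via Hill eqn; tetraoctylammonium bromide positive control.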
# [14] = qHTS assay for small molecule agonists of the antioxidant response element (ARE) signaling pathway measured by Nrf2-dependant transcriptional activity (AID 720636; active means well fitted curve in the direction sought with a large enough effect in the repeat runs; inconclusive means weak or mixed curves; inactive means no such curve, though single readings can be large; an effect the other way counts as inactive or inconclusive;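 further: HepG2 cells with an ARE-driven luciferase reporter; % of control where 0% means no effect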)
# How it was run: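 We exposed ARE-luc HepG2 cells, seeded in assay medium with 1% dialyzed FBS and allowed 6 hr to adhere, to test compounds overnight (16 hr, 37 C) before measuring luciferase with ONE-Glo.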
# [15] = qHTS assay for small molecule activators of the p53 signaling pathway (AID 651743; active means well fitted activation curve with a large enough effect in the signal ratio, not every such curve was filed as active; inconclusive means small, poorly fitted or top-dose-only effect, or a change in a side signal; the % refers to the signal ratio; further: % of control where 0% means no effect); details: HCT-116 p53RE-bla, beta-lactamase FRET ratio, 16 h; activation: hits give high values
# How it was run: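 A beta-lactamase reporter under p53 response element control, stably carried by HCT-116 cells, reported pathway activation. Test compounds were applied for 16 hours at 37 C, and fluorescence was measured 2 hours after adding the B/G FRET substrate.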
# [16] = qHTS assay for small molecule agonists of the antioxidant response element (ARE) signaling pathway measured by Nrf2-dependant transcriptional activity - cell viability counter screen (AID 720653; active means well fitted curve in the direction sought with a large enough effect in the repeat runs; inconclusive means weak or mixed curves; inactive means no such curve, though single readings can be large; an effect the other way counts as inactive or inconclusive; further: on the % scale 0 is the no-effect control and ±100 the full control effect); details: ARE-bla HepG2 viability, CellTiter-Glo ATP luminescence, 16 h; max response: hits give low values
# How it was run: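 Cytotoxicity counter screen: intracellular ATP quantified by CellTiter-Glo luminescence in the same ARE-bla HepG2 plates, after 16 h compound exposure and a 2 h beta-lactamase substrate step.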
# [17] = target: Thyroid hormone receptor beta (Homo sapiens) (UniProt P10828); assay: qHTS assay for small molecule antagonists of thyroid hormone receptor beta signaling (AID 588547; active means well fitted inhibition curve with a large enough effect in the signal ratio, with a control signal flat, not every such curve was filed as active; inconclusive means small, poorly fitted or top-dose-only effect, or effect the other way, or a change in a side signal; the % refers to the signal ratio); details: TR-UAS-bla HEK293, beta-lactamase ratio, antagonist mode, 18 h
# How it was run: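 Inhibition of T3-driven (0.4nM final) beta-lactamase reporter activity was measured over 0.59 nM to 92 uM compound after 18 h at 37 C. The cells were GripTite HEK293 TR-UAS-bla in charcoal/dextran-stripped serum, with CCF4 ratio read-out and IC50 from Hill fits.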
# [18] = target: Vitamin D3 receptor (Homo sapiens) (UniProt P11473); assay: qHTS assay for small molecule agonists of vitamin D receptor signaling (AID 588543); details: HEK293T VDR-UAS-bla, beta-lactamase ratio, 16 h; activation: at 76.8 µM (top of the series);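 further: 0% = DMSO basal and 100% = reference agonist control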
# How it was run: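 VDR-UAS-bla HEK293T cells, 2000/well, 2% charcoal-stripped FBS; compound titration 16 h at 37 C; CCF4 beta-lactamase ratio read. Normalized to 50 nM 1-alpha,25-dihydroxyvitamin D3 (100%) and DMSO; Hill fit gives EC50, efficacy.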
# [19] = Cell Viability - LYMP1-002 - Assay at 16 hr (AID 948; active means well fitted curve in the direction sought with a large enough effect; inconclusive means small, poorly fitted or top-dose-only effect, or another doubt; inactive means no such curve, though single readings can be large; an effect the other way counts as inactive or inconclusive;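 further: 0% = DMSO alone and full effect = 92 µM tetraoctylammonium bromide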); details: LYMP1-002 lymphoblastoid cell viability; at 92.2 µM (top of the series)
# How it was run: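 LYMP1-002 human lymphoblastoid cells, 2500/well, were treated with compounds for 16 hr at 37 C in complete medium. Viability was read as intracellular ATP by CellTiter-Glo luminescence, and AC50 was derived from a Hill fit to concentration-response data.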
# [20] = Cell Viability - LYMP2-012 (AID 982; active means well fitted curve in the direction sought with a large enough effect; inconclusive means small, poorly fitted or top-dose-only effect, or another doubt; inactive means no such curve, though single readings can be large; an effect the other way counts as inactive or inconclusive;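 further: cellular ATP by luciferase luminescence where a drop means cytotoxicity; cells exposed to compound for one day before reading; 0% = DMSO only and full loss = 92 µM tetraoctylammonium bromide; nearly all actives have a fitted effect of over 55% in size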); details: LYMP2-012 lymphoblastoid cell viability qHTS; activity change, negative = cytotoxicity: at 92.2 µM (top of the series)
# [21] = activity change, negative = inhibition: at 76.7 µM (top of the series)
# Tags describe the fitted curve by direction and shape or compound fluorescence and quenching.
structure (smiles),measurement,setting,value
CC(C)(C)[C@H](O)[C@H](Cc1ccc(Cl)cc1)n1cncn1,Potency,[1],"inconclusive [side channel, rising, partial curve, poor fit]"
same,Potency,[2],"inconclusive [fluorescent, side channel, partial curve, poor fit]"
same,"activity change, negative = inhibition",[3]; [21],inconclusive: 9.39%
same,"activity change, negative = inhibition",[3]; at 76.7 µM (top of the series),inactive: 7.13%
same,Potency,[4],"inconclusive [activator, partial curve, poor fit]"
same,Potency,[5],"inconclusive [activator, single point]"
same,activation,[5],inconclusive: 12.1%
CCCCOCCOCCOC(=O)CCCCC(=O)OCCOCCOCCCC,Potency,[6],inactive
same,Potency,[7],inactive
same,max response,[8],inactive: 5.79%
same,Potency,[5],"inconclusive [activator, partial curve]"
Cc1ccccc1C(=O)O,"activity change, negative = inhibition",[6],inconclusive: -13.5%
same,"activity change, negative = inhibition",[2],inconclusive: -34.1%
same,"activity, negative = inhibition",[7],inconclusive: 5.42%
same,activation,[9],inconclusive: -57.5%
same,Potency,[5],inactive
same,Potency,[10],inactive
same,activation,[11],inconclusive: 0.695%
CN(C)c1cccc(O)c1,caspase-3 activation,[12],inactive: 0.706%
same,Potency,[13],inactive
same,Potency,[6],inactive
same,"activity, negative = inhibition",[7],inconclusive: 10.1%
same,Potency,[4],inactive
same,max response,[8],inactive: 8.46%
same,Potency,[5],"inconclusive [activator, partial curve, poor fit]"
same,activation (TNF-alpha secretion),[10],inconclusive: 1.87%
same,activation,[11],inconclusive: 9.28%
CC(C)C(C)C,Potency,[1],inactive
same,"activity change, negative = inhibition",[2],inconclusive: -18%
same,Potency,[7],inactive
same,Potency,[9],"inconclusive [side channel, falling, full curve, poor fit]"
same,activation,[5],inconclusive: 12.8%
same,activation,[11],inconclusive: 10.3%
COc1nc(C)nc(NC(=O)NS(=O)(=O)c2ccccc2OCCCl)n1,Potency,[6],inactive
same,"activity, negative = inhibition",[7],inconclusive: -7.16%
same,"activity change, negative = inhibition",[3]; [21],inconclusive: -8.3%
same,Potency,[14],inactive
NN(c1ccccc1)c1ccccc1,"activity change, negative = inhibition",[6],inconclusive: -11.8%
same,activation,[5],inconclusive: 6.07%
same,activation,[15],inactive: -3.49%
same,Potency,[14],inactive
same,max response,[16],inactive: -7.4%
c1ccc(-c2ccc(-c3ccccc3)cc2)cc1,Potency,[6],inactive
same,Potency,[7],inactive
same,activity change % (negative = inhibition),[17],inactive: 2.31%
C[N+](C)(C)CC(O)CCl (stereo not given),Potency,[1],"inconclusive [activator, partial curve]"
same,Potency,[7],inactive
same,Potency,[18],inactive
Cc1cccc(C(=O)O)c1[N+](=O)[O-],"activity change, negative = cytotoxicity",[19],inactive: 3.6%
same,Potency,[20],inactive
same,Potency,[1],inactive
same,"activity change, negative = inhibition",[2],inconclusive: -23.8%
same,max response,[8],inconclusive: 4.61%
same,activation,[5],inconclusive: 12.1%
same,Potency,[11],inactive
